Assay results: the supplement of paper PMC4967469
By IC50 is meant the dose at which the fit gives 50% viability; where the fit passes the top or lowest dose, that dose stands as a limit. AUC is the area under the same curve over the 256-fold range up to the top dose, as a fraction; values near 1 show little effect. The top dose, if marked as inferred, is not printed in the source and was worked back from the curve model.

How the values were obtained:
Experiment in all cases: Viability of human cancer cell lines after 72 h of drug (GDSC screen)
CH5424802 = compound: CCc1cc2c(cc1N1CCC(N3CCOCC3)CC1)C(C)(C)c1[nH]c3cc(C#N)ccc3c1C2=O [CH5424802]; details: top dose 5.12 µM; top dose inferred
Method: (§1)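 Human cancer cell lines in 384-well plates, medium with 10% serum, drug for 72 h over a 256-fold dose range (nine 2-fold or five 4-fold steps up to the top dose). Adherent lines were fixed and stained with the nucleic acid dye Syto60, suspension lines read with resazurin; signal relative to control wells, capped at 0 and 100%. One two-parameter sigmoid per drug and line, fitted in a mixed model over all curves with the slope shared within a line.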

ACHP (KIN001-260) = compound: N#Cc1c(C2CCNCC2)cc(-c2c(O)cccc2OCC2CC2)nc1N [ACHP (KIN001-260)]; details: top dose 20 µM; top dose inferred
Method: as §1

CAY10603 = compound: CC(C)(C)OC(=O)Nc1ccc(-c2cc(C(=O)NCCCCCCC(=O)NO)no2)cc1 [CAY10603]; details: top dose 20 µM; top dose inferred
Method: as §1

Row | Cell Line | AUC (CH5424802) | IC50 (CH5424802) [µM] | AUC (ACHP (KIN001-260)) | IC50 (ACHP (KIN001-260)) [µM] | AUC (CAY10603) | IC50 (CAY10603) [µM]
1 | COR-L88 (small cell lung carcinoma, adherent) | 0.949 | > 5.12 | 0.959 | > 20 | 0.687 | 4.66
2 | COR-L105 (lung adenocarcinoma, adherent) | 0.765 | 2.29 | 0.883 | > 20 | 0.449 | 0.881
3 | COR-L279 (small cell lung carcinoma, suspension) | 0.973 | > 5.12 | 0.907 | > 20 | 0.363 | 0.549
4 | COR-L303 (small cell lung carcinoma, suspension) | 0.906 | > 5.12 | 0.956 | > 20 | 0.256 | 0.258
5 | COR-L321 (lung, suspension) | 0.967 | > 5.12 | 0.979 | > 20 | 0.223 | 0.195
6 | CP66-MEL (melanoma, adherent) | 0.979 | > 5.12 | 0.977 | > 20 | 0.851 | 18.7
7 | CPC-N (small cell lung carcinoma, suspension) | 0.968 | > 5.12 | 0.949 | > 20 | 0.406 | 0.675
8 | CTB-1 (B-cell lymphoma, suspension) | 0.938 | > 5.12 | 0.915 | > 20 | 0.223 | 0.14
9 | CTV-1 (acute myeloid leukaemia, suspension) | 0.988 | > 5.12 | 0.915 | 19.4 | 0.482 | 1.13
10 | Ca9-22 (head and neck, adherent) | 0.984 | > 5.12 | 0.972 | > 20 | 0.347 | 0.487
11 | Ca-Ski (cervix, adherent) | 0.967 | > 5.12 | 0.975 | > 20 | 0.43 | 0.785
12 | Calu-6 (lung adenocarcinoma, adherent) | 0.974 | > 5.12 | 0.948 | > 20 | 0.54 | 1.63
13 | Caov-3 (ovary, adherent) | 0.991 | > 5.12 | 0.988 | > 20 | 0.735 | 5.28
14 | ChaGo-K-1 (non-small cell lung carcinoma, adherent) | 0.98 | > 5.12 | 0.968 | > 20 | 0.746 | 7.19
15 | D-283MED (medulloblastoma, adherent) | 0.989 | > 5.12 | 0.988 | > 20 | 0.697 | 4.22
16 | D-502MG (glioma, adherent) | 0.971 | > 5.12 | 0.967 | > 20 | 0.643 | 3.87
17 | DAN-G (pancreas, adherent) | 0.991 | > 5.12 | 0.992 | > 20 | 0.634 | 2.78
18 | DB (B-cell lymphoma, suspension) | 0.969 | > 5.12 | 0.822 | 13.7 | 0.211 | 0.154
19 | DEL (lymphoid neoplasm, suspension) | 0.14 | 0.0352 | 0.669 | 3.29 | 0.338 | 0.494

Row | Cell Line | AUC (CH5424802) | IC50 (CH5424802) [µM] | AUC (ACHP (KIN001-260)) | IC50 (ACHP (KIN001-260)) [µM] | AUC (CAY10603) | IC50 (CAY10603) [µM]
20 | DJM-1 (skin, adherent) | 0.989 | > 5.12 | 0.987 | > 20 | 0.893 | > 20
21 | DK-MG (glioma, adherent) | 0.948 | > 5.12 | 0.946 | > 20 | 0.697 | 5.91
22 | DMS-79 (small cell lung carcinoma, suspension) | 0.964 | > 5.12 | 0.961 | > 20 | 0.655 | 3.62
23 | DSH1 (bladder, adherent) | 0.989 | > 5.12 | 0.989 | > 20 | 0.499 | 1.24
24 | DU-145 (prostate, adherent) | 0.985 | > 5.12 | 0.974 | > 20 | 0.501 | 1.26
25 | DU-4475 (breast, suspension) | 0.992 | > 5.12 | 0.963 | > 20 | 0.52 | 1.4
26 | Daoy (medulloblastoma, adherent) | 0.988 | > 5.12 | 0.892 | 19.7 | 0.256 | 0.271
27 | Detroit562 (head and neck, adherent) | 0.987 | > 5.12 | 0.988 | > 20 | 0.855 | 15
28 | EB2 (Burkitt lymphoma, suspension) | 0.754 | 1.58 | 0.648 | 3.07 | 0.414 | 0.746
29 | EB-3 (Burkitt lymphoma, suspension) | 0.958 | > 5.12 | 0.829 | 15.4 | 0.488 | 1.15
30 | EBC-1 (lung squamous cell carcinoma, adherent) | 0.983 | > 5.12 | 0.97 | > 20 | 0.68 | 4.26
31 | ECC10 (stomach, suspension) | 0.983 | > 5.12 | 0.965 | > 20 | 0.781 | 8.69
32 | EFM-19 (breast, adherent) | 0.954 | > 5.12 | 0.911 | > 20 | 0.513 | 1.38
33 | EFO-21 (ovary, adherent) | 0.939 | > 5.12 | 0.933 | > 20 | 0.727 | 7.46
34 | EFO-27 (ovary, adherent) | 0.965 | > 5.12 | 0.956 | > 20 | 0.501 | 1.26
35 | EGI-1 (biliary tract, adherent) | 0.978 | > 5.12 | 0.961 | > 20 | 0.805 | 13.9
36 | EJM (lymphoid neoplasm, semi-adherent) | 0.983 | > 5.12 | 0.931 | > 20 | 0.414 | 0.757
37 | EM-2 (chronic myeloid leukaemia, suspension) | 0.978 | > 5.12 | 0.894 | > 20 | 0.539 | 1.62
38 | EW-3 (Ewing sarcoma, adherent) | 0.904 | > 5.12 | 0.907 | > 20 | 0.404 | 0.654

Row | Cell Line | AUC (CH5424802) | IC50 (CH5424802) [µM] | AUC (ACHP (KIN001-260)) | IC50 (ACHP (KIN001-260)) [µM] | AUC (CAY10603) | IC50 (CAY10603) [µM]
39 | EW-13 (Ewing sarcoma, suspension) | 0.875 | > 5.12 | 0.81 | 12 | 0.529 | 1.51
40 | EW-18 (Ewing sarcoma, suspension) | 0.812 | 2.98 | 0.896 | > 20 | 0.259 | 0.242
41 | FU97 (stomach, adherent) | 0.985 | > 5.12 | 0.967 | > 20 | 0.68 | 4.03
42 | FU-OV-1 (ovary, adherent) | 0.965 | > 5.12 | 0.948 | > 20 | 0.513 | 1.37
43 | G-292 Clone A141B1 (osteosarcoma, adherent) | 0.95 | > 5.12 | 0.913 | > 20 | 0.935 | > 20
44 | G-361 (melanoma, adherent) | 0.974 | > 5.12 | 0.898 | > 20 | 0.449 | 0.913
45 | G-402 (soft tissue, adherent) | 0.978 | > 5.12 | 0.951 | > 20 | 0.692 | 5.23
46 | GAMG (glioma, adherent) | 0.976 | > 5.12 | 0.966 | > 20 | 0.392 | 0.621
47 | GCIY (stomach, adherent) | 0.984 | > 5.12 | 0.981 | > 20 | 0.341 | 0.426
48 | GCT (soft tissue, adherent) | 0.989 | > 5.12 | 0.989 | > 20 | 0.88 | 18.1
49 | GDM-1 (acute myeloid leukaemia, suspension) | 0.909 | > 5.12 | 0.72 | 5.08 | 0.262 | 0.272
50 | GMS-10 (glioma, adherent) | 0.988 | > 5.12 | 0.987 | > 20 | 0.815 | 10.9
51 | GOTO (neuroblastoma, adherent) | 0.983 | > 5.12 | 0.941 | > 20 | 0.31 | 0.339
52 | H4 (glioma, adherent) | 0.986 | > 5.12 | 0.983 | > 20 | 0.549 | 1.7
53 | H2373 (mesothelioma, adherent) | 0.974 | > 5.12 | 0.972 | > 20 | 0.597 | 2.48
54 | H2818 (mesothelioma, adherent) | 0.982 | > 5.12 | 0.989 | > 20 | 0.832 | 13.4
55 | H3255 (lung adenocarcinoma, adherent) | 0.97 | > 5.12 | 0.982 | > 20 | 0.768 | 8.91
56 | H-EMC-SS (chondrosarcoma, adherent) | 0.97 | > 5.12 | 0.879 | > 20 | 0.791 | 12.1
57 | HA7-RCC (kidney, adherent) | 0.985 | > 5.12 | 0.962 | > 20 | 0.981 | > 20
